Patent publication US20240336926A1, “PHARMACEUTICAL COMPOSITION FOR TREATING TRIPLE NEGATIVE BREAST CANCER, CONTAINING NON-NATURAL NUCLEIC ACID LIGAND AS ACTIVE INGREDIENT” (INTEROLIGO CORPORATION, priority 2021, published 2024)
[NapdU] = 5-[N-(1-naphthylmethyl)carboxamide]-2'-deoxyuridine (Nap-dU), written as 6

Experiments:
[1] = system: 4T1-Luc2 triple-negative cell line; assay: TNBC orthotopic mouse model (tumor resection model), Example 7-4; conditions: for mice deceased / survival rate: 100 μg intraperitoneally every two days
[2] = system: 4T1-Luc2 triple-negative cell line; assay: TNBC orthotopic mouse model (tumor resection model), Example 7-3; conditions: 15 injections; for anti-metastasis and anti-recurrence effects: 300 μg and 600 μg intraperitoneally, vs untreated and control groups; for mice deceased / survival rate: as of 59 days
[3] = system: 4T1-Luc2 triple-negative cell line; assay: TNBC orthotopic mouse model (non-tumor resection model), tumor volume; assay type: in vivo; conditions: 30 μg, 100 μg, 300 μg intraperitoneally every other day, six injections; vs untreated
Source text: Each test group consisted of five animals.

[4] = system: 4T1-Luc2 triple-negative cell line; assay: TNBC orthotopic mouse model (tumor resection model), Example 7-2; conditions: 30 μg intraperitoneally every other day, six injections; 32 days post-tumor resection
[5] = 15 injections, 42 days post-tumor resection
[6] = 300 μg intraperitoneally every two days
[7] = 600 μg intraperitoneally every two days

Row | Compound | mice deceased [1, 5] | survival rate [1, 5] [%] | anti-metastasis and anti-recurrence effects [2] | mice deceased [2, 6] | survival rate [2, 6] [%] | mice deceased [2, 7] | survival rate [2, 7] [%] | also measured
1 | AD212: GA96AG9A6AAG6CCGGA6GGCAGC666A6GCCGACCA6, 6 = Nap-dU, 9 = gemcitabine (DNA GANNAGNANAAGNCCGGANGGCAGCNNNANGCCGACCAN; Nap-dU and gemcitabine modified nucleotides; modified_base 3 OTHER; Gemcitabine; modified_base 7 OTHER; gemcitabine; modified_base 4 OTHER; 5-(N-(1-naphthylmethyl)carboxamide)-2'-deoxyuridine(Nap-dU); modified_base 9 OTHER; modified_base 13 OTHER; modified_base 19 OTHER; 5-(N-(1-naphthylmethyl)carboxamide)-2'-deoxyuridine) | 4 out of 5 | 20 |  |  |  |  |  | 
2 | AD210: 99TGGAC6AGCA6AAG6CCGGA6GGCAGC666A6GCCGACCA6, 6 = Nap-dU, 9 = gemcitabine (DNA NNTGGACNAGCANAAGNCCGGANGGCAGCNNNANGCCGACCAN; Nap-dU, 5' gemcitabine residues; modified_base 1..2 OTHER; gemcitabine; modified_base 8 OTHER; 5-(N-(1-naphthylmethyl)carboxamide)-2'-deoxyuridine(Nap-dU); modified_base 13 OTHER; modified_base 17 OTHER; modified_base 23 OTHER; modified_base 30..32 O) | 3 out of 5 | 40 |  |  |  |  |  | anti-metastasis and anti-recurrence effects vs AD005 300 μg group of 7-3-3 ([1]; 100 μg intraperitoneally, 15 injections, 42 days post-tumor resection): superior anti-metastasis and anti-recurrence effects
3 | Nc1ccn([C@@H]2O[C@H](CO)[C@@H](O)C2(F)F)c(=O)n1 [gemcitabine, reference compound] |  |  |  |  |  |  |  | time by which the group perished due to metastasis ([1]; 1 mg intravenously every two days, 10 injections, post-tumor resection): ≤ 42 days
4 | AD089: AD005 truncated sequence GAC6AGCA6AAG6CCGGA6GGCAGC666A6GCC, 6 = Nap-dU (DNA GACUAGCAUAAGUCCGGAUGGCAGCUUUAUGCC; DNA, [NapdU] at 4, 9, 13, 19, 26, 27, 28, 30, backbone not given here) |  |  | increasingly effective anti-metastasis and anti-recurrence effects with higher dosages | 3 out of 4 | 25 | 2 out of 4 | 50 | 
5 | AD005: truncated nucleic acid ligand GAC6AGCA6AAG6CCGGA6GGCAGC666A6GCCGACCA6, 6 = Nap-dU (DNA GACNAGCANAAGNCCGGANGGCAGCNNNANGCCGACCAN; Nap-dU modified bases; modified_base 4 OTHER; 5-(N-(1-naphthylmethyl)carboxamide)-2-deoxyuridine; modified_base 9 OTHER; 5-(N-(1-naphthylmethyl)carboxamide)-2'-deoxyuridine(Nap-dU); modified_base 13 OTHER; modified_base 19 OTHER; modified_base 26..28 OTHER; 5-(N-(1-naphthylmethyl)carboxamide)-2'-deox) |  |  | increasingly effective anti-metastasis and anti-recurrence effects with higher dosages | 4 out of 5 | 20 | 1 out of 4 | 75 | tumor suppression effect (tumor size) [3]: increasingly effective tumor suppression effect as the dosage increased; mice deceased [4]: 2 out of 7; survival rate [4]: approximately 70%
6 | AD211: GAC6AGCA6AAG6CCGGA6GGCAGC666A6GCCGA99A6, 6 = Nap-dU, 9 = gemcitabine (DNA GACNAGCANAAGNCCGGANGGCAGCNNNANGCCGANNAN; Nap-dU and gemcitabine modified nucleotides; modified_base 36..37 OTHER; gemcitabine; modified_base 39 OTHER; 5-(N-(1-naphthylmethyl)carboxamide)-2'-deoxyuridine(Nap-dU); modified_base 30 OTHER; modified_base 26..28 OTHER; modified_base 19 OTHER; modified_base 1) | 4 out of 5 | 20 |  |  |  |  |  | 
